# Some of the results follow.
# Legend:
# Assay in all cases: glycan array binding signal (z-score within array); higher = stronger binding
# Details in all cases: glycan notation: IUPAC condensed, linker removed
# Fuc(a1-2)Gal = target: Fuc(a1-2)Gal
# Summary of the method: (§1)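 The binding signal is a Z-score computed within each array. Data were drawn from 3228 arrays in the Consortium for Functional Glycomics database, restricted to those with a known protein sequence. Scores were averaged over arrays of the same protein sequence at different concentrations or buffers, and over linkers, and negative values can be taken as non-binding.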
# Fuc(a1-2)Gal(b1-3)GalNAc = target: Fuc(a1-2)Gal(b1-3)GalNAc
# Summary of the method: as §1
# [1] = target: Fuc(a1-2)Gal(b1-3)GalNAc(a1-3)[Fuc(a1-2)]Gal(b1-4)Glc
# Summary of the method: as §1
# [2] = target: Fuc(a1-2)Gal(b1-3)GalNAc(a1-3)[Fuc(a1-2)]Gal(b1-4)GlcNAc
# Summary of the method: as §1
# [3] = target: Fuc(a1-2)Gal(b1-3)GalNAc(b1-3)Gal
# Summary of the method: as §1
# [4] = target: Fuc(a1-2)Gal(b1-3)GalNAc(b1-3)Gal(a1-4)Gal(b1-4)Glc
# Summary of the method: as §1
# [5] = target: Fuc(a1-2)Gal(b1-3)GalNAc(b1-4)[Neu5Ac(a2-3)]Gal(b1-4)Glc
# Summary of the method: as §1
# Fuc(a1-2)Gal(b1-3)GlcNAc = target: Fuc(a1-2)Gal(b1-3)GlcNAc
# Summary of the method: as §1
# [6] = target: Fuc(a1-2)Gal(b1-3)GlcNAc(b1-2)Man(a1-3)[Fuc(a1-2)Gal(b1-3)GlcNAc(b1-2)Man(a1-6)]Man(b1-4)GlcNAc(b1-4)GlcNAc
# Summary of the method: as §1
# [7] = target: Fuc(a1-2)Gal(b1-3)GlcNAc(b1-2)Man(a1-3)[Fuc(a1-2)Gal(b1-3)GlcNAc(b1-2)Man(a1-6)]Man(b1-4)GlcNAc(b1-4)[Fuc(a1-6)]GlcNAc
# Summary of the method: as §1
# [8] = target: Fuc(a1-2)Gal(b1-3)GlcNAc(b1-3)Gal(b1-4)Glc
# Summary of the method: as §1
# [9] = target: Fuc(a1-2)Gal(b1-3)GlcNAc(b1-3)GalNAc
# Summary of the method: as §1
# [10] = target: Fuc(a1-2)Gal(b1-3)GlcNAc(b1-3)[Fuc(a1-2)Gal(b1-3)GlcNAc(b1-6)]GalNAc
# Summary of the method: as §1
# [11] = target: Fuc(a1-2)Gal(b1-3)GlcNAc(b1-3)[Gal(b1-4)GlcNAc(b1-6)]Gal(b1-4)Glc
# Summary of the method: as §1
# [12] = target: Fuc(a1-2)Gal(b1-3)GlcNAc(b1-3)[Neu5Ac(a2-6)Gal(b1-4)GlcNAc(b1-6)]Gal(b1-4)Glc
# Summary of the method: as §1
# [13] = target: Fuc(a1-2)Gal(b1-3)GlcNAc6S
# Summary of the method: as §1
# [14] = target: Fuc(a1-2)Gal(b1-3)[Fuc(a1-4)]GlcNAc
# Summary of the method: as §1
# [15] = target: Fuc(a1-2)Gal(b1-3)[Fuc(a1-4)]GlcNAc(b1-2)Man(a1-3)[Fuc(a1-2)Gal(b1-3)[Fuc(a1-4)]GlcNAc(b1-2)Man(a1-3)]Man(b1-4)GlcNAc(b1-4)GlcNAc
# Summary of the method: as §1
# [16] = target: Fuc(a1-2)Gal(b1-3)[Fuc(a1-4)]GlcNAc(b1-2)Man(a1-3)[Fuc(a1-2)Gal(b1-3)[Fuc(a1-4)]GlcNAc(b1-2)Man(a1-6)]Man(b1-4)GlcNAc(b1-4)[Fuc(a1-6)]GlcNAc(b1-4)[Fuc(a1-6)]GlcNAc
# Summary of the method: as §1
# [17] = target: Fuc(a1-2)Gal(b1-3)[Fuc(a1-4)]GlcNAc(b1-3)[Fuc(a1-3)[Gal(b1-4)]GlcNAc(b1-6)]Gal(b1-4)Glc
# Summary of the method: as §1
# [18] = target: Fuc(a1-2)Gal(b1-3)[Fuc(a1-4)]GlcNAc(b1-3)[Gal(b1-4)GlcNAc(b1-6)]Gal(b1-4)Glc
# Summary of the method: as §1
# Fuc(a1-2)Gal(b1-4)Glc = target: Fuc(a1-2)Gal(b1-4)Glc
# Summary of the method: as §1
# Fuc(a1-2)Gal(b1-4)Glc6S = target: Fuc(a1-2)Gal(b1-4)Glc6S
# Summary of the method: as §1
# Fuc(a1-2)Gal(b1-4)GlcNAc = target: Fuc(a1-2)Gal(b1-4)GlcNAc
# Summary of the method: as §1
# [19] = target: Fuc(a1-2)Gal(b1-4)GlcNAc(b1-2)Man
# Summary of the method: as §1
# [20] = target: Fuc(a1-2)Gal(b1-4)GlcNAc(b1-2)Man(a1-3)[Fuc(a1-2)Gal(b1-4)GlcNAc(b1-2)Man(a1-6)]Man(b1-4)GlcNAc(b1-4)GlcNAc
# Summary of the method: as §1
# [21] = target: Fuc(a1-2)Gal(b1-4)GlcNAc(b1-2)Man(a1-3)[Fuc(a1-2)Gal(b1-4)GlcNAc(b1-2)Man(a1-6)]Man(b1-4)GlcNAc(b1-4)[Fuc(a1-6)]GlcNAc
# Summary of the method: as §1
# [22] = target: Fuc(a1-2)Gal(b1-4)GlcNAc(b1-2)[Fuc(a1-2)Gal(b1-4)GlcNAc(b1-4)]Man(a1-3)[Fuc(a1-2)Gal(b1-4)GlcNAc(b1-2)Man(a1-6)]Man(b1-4)GlcNAc(b1-4)GlcNAc
# Summary of the method: as §1
# [23] = target: Fuc(a1-2)Gal(b1-4)GlcNAc(b1-3)Gal(b1-4)GlcNAc
# Summary of the method: as §1
# [24] = target: Fuc(a1-2)Gal(b1-4)GlcNAc(b1-3)Gal(b1-4)GlcNAc(b1-2)Man(a1-3)[Fuc(a1-2)Gal(b1-4)GlcNAc(b1-3)Gal(b1-4)GlcNAc(b1-2)Man(a1-6)]Man(b1-4)GlcNAc(b1-4)GlcNAc
# Summary of the method: as §1
# [25] = target: Fuc(a1-2)Gal(b1-4)GlcNAc(b1-3)Gal(b1-4)GlcNAc(b1-3)Gal(b1-4)GlcNAc
# Summary of the method: as §1
# [26] = target: Fuc(a1-2)Gal(b1-4)GlcNAc(b1-3)GalNAc
# Summary of the method: as §1
# [27] = target: Fuc(a1-2)Gal(b1-4)GlcNAc(b1-3)[Fuc(a1-2)Gal(b1-4)GlcNAc(b1-6)]GalNAc
# Summary of the method: as §1
# [28] = target: Fuc(a1-2)Gal(b1-4)GlcNAc(b1-3)[Fuc(a1-3)[Gal(b1-4)]GlcNAc(b1-6)]Gal(b1-4)Glc
# Summary of the method: as §1
# [29] = target: Fuc(a1-2)Gal(b1-4)GlcNAc(b1-6)GalNAc
# Summary of the method: as §1
# [30] = target: Fuc(a1-2)Gal(b1-4)GlcNAc6S
# Summary of the method: as §1
# [31] = target: Fuc(a1-2)Gal(b1-4)[Fuc(a1-3)]GlcNAc
# Summary of the method: as §1
# [32] = target: Fuc(a1-2)Gal(b1-4)[Fuc(a1-3)]GlcNAc(b1-2)Man(a1-3)[Fuc(a1-2)Gal(b1-4)[Fuc(a1-3)]GlcNAc(b1-2)Man(a1-6)]Man(b1-4)GlcNAc(b1-4)[Fuc(a1-6)]GlcNAc
# Summary of the method: as §1
# [33] = target: Fuc(a1-2)Gal(b1-4)[Fuc(a1-3)]GlcNAc(b1-2)[Fuc(a1-2)Gal(b1-4)[Fuc(a1-3)]GlcNAc(b1-4)]Man(a1-3)[Fuc(a1-2)Gal(b1-4)[Fuc(a1-3)]GlcNAc(b1-2)Man(a1-6)]Man(b1-4)GlcNAc(b1-4)GlcNAc
# Summary of the method: as §1
# [34] = target: Fuc(a1-2)Gal(b1-4)[Fuc(a1-3)]GlcNAc(b1-3)Gal(b1-4)[Fuc(a1-3)]GlcNAc
# Summary of the method: as §1
# [35] = target: Fuc(a1-2)Gal(b1-4)[Fuc(a1-3)]GlcNAc(b1-3)Gal(b1-4)[Fuc(a1-3)]GlcNAc(b1-3)Gal(b1-4)[Fuc(a1-3)]GlcNAc
# Summary of the method: as §1
# [36] = target: Fuc(a1-2)Gal(b1-4)[Fuc(a1-3)]GlcNAc(b1-3)GalNAc
# Summary of the method: as §1
# [37] = target: Fuc(a1-2)Gal(b1-4)[Fuc(a1-3)]GlcNAc(b1-3)[Neu5Ac(a2-6)Gal(b1-4)GlcNAc(b1-6)]Gal(b1-4)Glc
# Summary of the method: as §1
# [38] = target: Fuc(a1-2)Gal3S(b1-4)GlcNAc
# Summary of the method: as §1
# [39] = target: Fuc(a1-2)Gal6S(b1-3)GlcNAc
# Summary of the method: as §1
binder,measurement,setting,value
PfulAvr4 2 (Pseudocercospora fuligena) (protein) HHHHHHDYKDDDDKAKPIKPFACPPKDFTTTKCQGPVDCLYANPLSCLGYIQCVCDDDACSTATPYAKSCPTGLAWVEKLKRCDGIKKSACPKKMYEGS,glycan array binding signal (z-score),Fuc(a1-2)Gal,0.036
same,glycan array binding signal (z-score),Fuc(a1-2)Gal(b1-3)GalNAc,-0.34
same,glycan array binding signal (z-score),[1],-0.383
same,glycan array binding signal (z-score),[2],-0.267
same,glycan array binding signal (z-score),[3],0.018
same,glycan array binding signal (z-score),[4],0.285
same,glycan array binding signal (z-score),[5],-0.339
same,glycan array binding signal (z-score),Fuc(a1-2)Gal(b1-3)GlcNAc,-0.301
same,glycan array binding signal (z-score),[6],1.82
same,glycan array binding signal (z-score),[7],1.04
same,glycan array binding signal (z-score),[8],-0.327
same,glycan array binding signal (z-score),[9],-0.211
same,glycan array binding signal (z-score),[10],0.112
same,glycan array binding signal (z-score),[11],-0.337
same,glycan array binding signal (z-score),[12],-0.387
same,glycan array binding signal (z-score),[13],-0.278
same,glycan array binding signal (z-score),[14],-0.222
same,glycan array binding signal (z-score),[15],1.91
same,glycan array binding signal (z-score),[16],-0.058
same,glycan array binding signal (z-score),[17],-0.264
same,glycan array binding signal (z-score),[18],-0.357
same,glycan array binding signal (z-score),Fuc(a1-2)Gal(b1-4)Glc,0.315
same,glycan array binding signal (z-score),Fuc(a1-2)Gal(b1-4)Glc6S,0.893
same,glycan array binding signal (z-score),Fuc(a1-2)Gal(b1-4)GlcNAc,-0.098
same,glycan array binding signal (z-score),[19],1.45
same,glycan array binding signal (z-score),[20],-0.155
same,glycan array binding signal (z-score),[21],2.88
same,glycan array binding signal (z-score),[22],0.781
same,glycan array binding signal (z-score),[23],-0.271
same,glycan array binding signal (z-score),[24],0.624
same,glycan array binding signal (z-score),[25],-0.123
same,glycan array binding signal (z-score),[26],0.36
same,glycan array binding signal (z-score),[27],-0.239
same,glycan array binding signal (z-score),[28],-0.327
same,glycan array binding signal (z-score),[29],0.04
same,glycan array binding signal (z-score),[30],-0.143
same,glycan array binding signal (z-score),[31],-0.325
same,glycan array binding signal (z-score),[32],-0.242
same,glycan array binding signal (z-score),[33],4.77
same,glycan array binding signal (z-score),[34],-0.355
same,glycan array binding signal (z-score),[35],-0.228
same,glycan array binding signal (z-score),[36],-0.346
same,glycan array binding signal (z-score),[37],-0.41
same,glycan array binding signal (z-score),[38],-0.337
same,glycan array binding signal (z-score),[39],-0.095
